Screen size: about 310,000 compounds; about 14,000 (4.5%) showed an effect of 50% or more. Effects have a minus sign here. This is one part of the list.
molecular target: human ether-à-go-go-related gene (hERG) potassium channel (human, UniProt Q12809); test: primary screen, population patch clamp on CHO cells stably expressing hERG
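Further: peak tail current of the secondary pulse compared with the same well before compound.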

human ether-à-go-go-related gene (hERG) potassium channel, sequence (Q12809 whole entry, looked up): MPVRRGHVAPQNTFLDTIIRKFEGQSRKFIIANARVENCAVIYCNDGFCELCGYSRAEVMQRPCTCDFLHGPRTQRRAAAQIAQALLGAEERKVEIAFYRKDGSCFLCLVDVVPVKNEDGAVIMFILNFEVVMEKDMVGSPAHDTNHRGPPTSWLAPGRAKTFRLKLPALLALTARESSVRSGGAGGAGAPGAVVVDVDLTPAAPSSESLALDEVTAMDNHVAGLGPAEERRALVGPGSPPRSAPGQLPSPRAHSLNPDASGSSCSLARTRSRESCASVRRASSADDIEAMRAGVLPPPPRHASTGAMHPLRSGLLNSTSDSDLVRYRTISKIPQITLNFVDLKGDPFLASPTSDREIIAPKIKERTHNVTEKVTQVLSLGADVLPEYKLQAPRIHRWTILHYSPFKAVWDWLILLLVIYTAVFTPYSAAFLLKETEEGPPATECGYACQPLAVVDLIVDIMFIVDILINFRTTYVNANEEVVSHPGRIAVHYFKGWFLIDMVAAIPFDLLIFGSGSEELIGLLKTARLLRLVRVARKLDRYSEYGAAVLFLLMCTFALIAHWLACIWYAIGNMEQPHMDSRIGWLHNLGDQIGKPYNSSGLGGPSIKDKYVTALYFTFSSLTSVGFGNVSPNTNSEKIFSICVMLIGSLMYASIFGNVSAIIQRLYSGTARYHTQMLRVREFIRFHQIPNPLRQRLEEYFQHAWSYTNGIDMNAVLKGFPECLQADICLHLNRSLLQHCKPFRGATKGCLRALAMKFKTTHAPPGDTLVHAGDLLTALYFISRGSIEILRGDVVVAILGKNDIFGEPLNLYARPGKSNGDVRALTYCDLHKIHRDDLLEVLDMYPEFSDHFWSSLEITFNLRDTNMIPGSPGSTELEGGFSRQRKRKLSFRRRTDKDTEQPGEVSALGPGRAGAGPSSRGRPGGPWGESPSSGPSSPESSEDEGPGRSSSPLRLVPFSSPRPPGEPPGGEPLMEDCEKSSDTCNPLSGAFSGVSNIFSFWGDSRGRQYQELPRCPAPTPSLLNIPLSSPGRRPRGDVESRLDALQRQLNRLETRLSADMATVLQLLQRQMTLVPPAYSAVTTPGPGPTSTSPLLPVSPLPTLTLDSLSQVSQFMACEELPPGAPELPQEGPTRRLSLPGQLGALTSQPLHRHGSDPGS

SMILES	hERG current change (%, negative = inhibition) at 10uM [%]
CCN(CC(=O)Nc1ccc(Cl)c(C(F)(F)F)c1)CC(=O)NC1CCS(=O)(=O)C1 (stereo not drawn)	-13.2
COc1ccc2nc(/C=N/NC(=O)CCCCCNC(=O)OC(C)(C)C)ccc2c1	-0.0758
Cc1nn(CC#N)c(=O)n1-c1ccccc1	8.38
O=C(NNS(=O)(=O)c1ccc(Cl)cc1)c1cnn(-c2ccccc2)c1-n1cccc1	1.03
CCOC(=O)C1CCCN(C(=O)CCC(=O)Nc2ccc3nc(N4CCOCC4)cc(C)c3c2)C1 (stereo not drawn)	-23.7
COc1cc(C(=O)NNC(=O)CN2C(=O)NC(C)(c3ccc(C)cc3)C2=O)cc(OC)c1OC (stereo not drawn)	0.89
Cc1cc(NS(=O)(=O)c2ccc(NC(=O)CSc3nnc(-c4ccco4)n3N)cc2)nc(C)n1	11.7
CCCCCCn1c(O)c(C=Nc2c(C)n(C)n(-c3ccccc3)c2=O)c(=O)[nH]c1=O	-27.2
O=C(CNc1ccc2ccccc2c1)N/N=C/c1ccncc1	-8.31
O=C1Nc2ccccc2N(O)N1c1cc(-c2ccc(Cl)cc2)[nH]n1	22.9
COc1ccc(C(=O)Oc2cc(C)[nH]c(=O)c2[N+](=O)[O-])cc1	-1.51
Cc1cccc(NC(=O)C2CCN(S(=O)(=O)c3ccc(Cl)cc3)CC2)n1	-2.4
CCOC(=O)COc1ccc(S(=O)(=O)N2CCN(C(=O)OCC)CC2)cc1	5.11
COc1ccc(-c2csc(/C(C#N)=C/Nc3ccc4c(c3)OCCO4)n2)cc1	3.31
CCN(CC(=O)Nc1c(F)cccc1F)C(=O)/C=C/c1cn(Cc2ccccc2)nc1-c1cccnc1	-31.6
Cc1ccc(CNC(=O)CCNS(=O)(=O)c2ccc3c(c2)c(=O)n(C)c(=O)n3C)cc1	13.2
CC(C)OC(=O)c1cc(C(=O)c2cc(F)ccc2O)coc1=N	-7.34
COC(=O)c1c(NC(=O)CCCC(=O)O)sc2c1CCCCC2	12.2
Cc1nc(N/N=C/c2ccccc2)nc(N(C)c2ccccc2)c1[N+](=O)[O-]	11.4
O=C(Nc1ccc(F)cc1)N1CCN(c2ccc(F)cc2)CC1	-67.8
CCOC(=O)c1c(C)[nH]c(C(=O)OCC(=O)Nc2ccccc2)c1C	11.2
CNc1cnn(-c2ccccc2)c(=O)c1Cl	7.49

SMILES	hERG current change (%, negative = inhibition) at 10uM [%]
O=C(NCC1CCCO1)C1c2ccccc2C(=O)N1Cc1ccc2c(c1)OCO2 (stereo not drawn)	-25.9
Cc1csc(=NC(=O)c2ccccc2)n1C	-0.315
CCOc1ccccc1CNC(=O)c1ccc(NC(=O)C2=CSCCO2)cc1	7.72
Cc1ccc(C(=O)c2cc(C)sc2N)cc1	3.3
CCc1cccc(C)c1NC(=S)N(CCN(C)C)C(C)c1cccnc1 (stereo not drawn)	-3.46
Cc1cc(NC(=O)CSc2n[nH]c(N)n2)no1	10.9
COc1cc([N+](=O)[O-])cc(/C=N/NC(=O)c2cncc(Br)c2)c1O	-5.15
O=C(CN(c1cc(C(F)(F)F)ccc1Cl)S(=O)(=O)c1ccccc1)NCc1cccnc1	4.14
COc1ccc(C[C@H]2c3cc(O)c(OC)cc3CC[N+]2(C)[O-])cc1O (stereo partly drawn)	14.7
CC1=CC(C)(C)N(C(=O)CSc2nnc(N)s2)c2cc(C)c(C)cc21	-6
Cc1ccc(S(=O)(=O)N2CCN(C(=O)N3CCOCC3)C2C(C)C)cc1 (stereo not drawn)	-7.1
CCC(=O)Nc1cccc(-c2nc3ccc(C)cc3o2)c1	-13.4
Cc1ccc(C)c(NC(=O)C(c2ccccc2)N2CCOCC2)c1 (stereo not drawn)	-10.6
Cc1cccc(NC(=O)CCSc2nc(C)cc(C)n2)c1	0.549
Nc1ccc(N=Nc2ccccc2O)c(N)c1	10.9
Cc1cccc(CNC(=O)C2CCC(=O)N(C3CCCCCC3)C2)c1 (stereo not drawn)	-17.4
Cc1ccc(NC(=O)CC2SCCNC2=O)cc1[N+](=O)[O-] (stereo not drawn)	16.6
Cc1cccc(NC(=O)CCc2ccccc2)c1C	20.7
O=c1c2c(-c3cccc([N+](=O)[O-])c3)ccnc2[nH]n1-c1ccccc1	10
CSc1cccc(NC(=S)N(Cc2ccccc2)Cc2cccnc2)c1	-11.3
COCCNC(=O)c1ccc(CN2CCOCC2)cc1	4.88
Cc1nc2c(ncn2-c2ccccc2)c(=O)n1NC(=O)CN1CCCC1	5.89

SMILES	hERG current change (%, negative = inhibition) at 10uM [%]
N#CCOC(=O)[C@H](Cc1c[nH]c2ccccc12)NS(=O)(=O)c1ccc(Cl)cc1	7.37
Cc1cc(C)cc(C(=O)NC(CC(N)=O)c2ccc(N3CCC(Br)CC3)c([N+](=O)[O-])c2)c1 (stereo not drawn)	-16.1
Cc1ccc(-c2cnn(-c3cccc([N+](=O)[O-])c3)c2N)cc1	-24.1
COc1ccc(CN2C(=O)NC(C)(c3ccc(C)cc3)C2=O)cc1F (stereo not drawn)	-14.2
Fc1ccc(C2=CC(c3ccco3)n3nnnc3N2)cc1 (stereo not drawn)	-6.76
CC(=O)NC1(C(F)(F)F)NC(=O)N(c2ccc(F)cc2)C1=O (stereo not drawn)	16
CCc1ccc(-n2c(CSc3nnnn3-c3ccccc3)nc3ccccc3c2=O)cc1	-1.24
CC(=O)Nc1c(C)cc(OCC(=O)O)cc1C	-6.51
O=[N+]([O-])c1ccc(CN2CCN(c3ccc(Cl)cc3)CC2)o1	-2.29
CC(=O)OC1(c2ccccc2)CCN(C)C2CCCCC21.Cl (stereo not drawn)	-0.508
Cc1nn(CC(=O)NCc2cccs2)c(=O)c2nn(-c3ccccc3)c(C)c12	1.96
CCCCOc1ccc(-c2nnc(-c3ccco3)o2)cc1	-1.67
COc1ccccc1-c1nc(S(=O)(=O)c2ccccc2)c(N2CCCCC2)o1	14.4
O=[N+]([O-])c1cc(S(=O)(=O)N2CCCCC2)ccc1NCCN1CCOCC1	-11.4
CC1C/C(=C/c2ccncc2)C(=O)/C(=C/c2ccncc2)C1 (stereo not drawn)	-41.9
CC(C)[C@H](Nc1nc(-c2ccccc2)nc2c1oc1ccccc12)C(=O)O.Cl	22
COc1cc2c(=O)n(CC3CCCO3)c(=O)n(CC(=O)Nc3ccc(F)cc3F)c2cc1OC (stereo not drawn)	-10.3
O=C(O)c1cccc(S(=O)(=O)NCCC(c2ccccc2)c2ccccc2)c1	22.1
O=C(c1ccc(F)cc1)C(C(=O)N1CCCCC1)n1ccccc1=O (stereo not drawn)	15.9
CCC1=NN2C(=N)/C(=C\c3cccn3-c3ccc(OC)cc3)C(=O)N=C2S1	-6.71
Clc1ccc(Cc2noc(Cc3ccccc3)n2)cc1Cl	0.774
COc1ccc(CNC(=O)[C@H](Cc2c[nH]c3ccccc23)NC(C)=O)cc1OC	8.4

SMILES	hERG current change (%, negative = inhibition) at 10uM [%]
O=C(CCNS(=O)(=O)c1cccs1)NCc1cccs1	24
O=C(Nc1ccc(NC(=O)c2ccc([N+](=O)[O-])o2)cc1Cl)c1ccco1	9.42
Cc1ccc2cccc(S(=O)(=O)N3CCCc4ccccc43)c2n1	19.4
O=C(Nc1nnc(C2=COCCO2)o1)c1ccc(Cl)cc1	16.6
Cc1c([N+](=O)[O-])c(C(=O)NC2CCCCC2)nn1C	-19.6
O=C(NCC1CCCO1)c1cc2n(n1)C(C(F)(F)F)CC(c1ccc(Br)cc1)N2 (stereo not drawn)	-3.05
O=C1NC(NS(=O)(=O)c2ccccc2)(C(F)(F)F)C(=O)N1Cc1ccccc1 (stereo not drawn)	12.2
O=Nc1ccc(NOC(=O)c2ccccc2)cc1	5.89
COc1ccc(-c2nnc(NC(=O)c3ccc(S(=O)(=O)N4COCC4(C)C)cc3)o2)cc1	-3.37
CCN1CCN(CC(=O)Nc2ccc(Cl)c(S(=O)(=O)N(C)C)c2)CC1	-1.96
Cc1ccc(C(=O)Nc2ccc3nc(C)sc3c2)s1	22.2
Cc1cc2ncc(S(=O)(=O)C(C)(C)C)c(N)n2n1	26.7
COc1ccc(OC)c(-c2csc(NC(=O)CN3C(=O)C4CCCCC4C3=O)n2)c1 (stereo not drawn)	-0.554
O=C(O)c1cc(=O)c2ccccc2o1	24
Cn1c(=O)[nH]c(=O)c2c1nc(N1CCOCC1)n2CC(O)COc1ccccc1 (stereo not drawn)	6.81
Cl.Cn1c(O)c(C=NCCCN2CCCC2=O)c(=O)n(C)c1=O.O=C(O)C(=O)O	19
CC(SCc1cn2cc(Cl)ccc2n1)C(=O)O (stereo not drawn)	-1.51
CC(C)CN1CCN(Cc2cccc3cccnc23)CC1CCO (stereo not drawn)	6.58
C[C@@H]1Cc2c(O)c(O)cc(O)c2C(=O)O1	12.4
CCOC(=O)C1CCCN(C(=O)C2CCCN(S(C)(=O)=O)C2)C1 (stereo not drawn)	1.81
CCc1ccc(S(=O)(=O)Nc2c(NC3CCCCC3)c3ccccc3oc2=O)cc1	-3.7
